{"source": "PubChem BioAssay AID1347077", "about": "(National Center for Advancing Translational Sciences (NCATS), 2019)", "note": "Fewer than 10 of roughly 44,000 compounds were called active. Inconclusive results, whose numbers are uncertain, are shown with a selection of clear calls. The call rests on the fitted dose curve; in most records, active means well fitted activation curve with a large enough effect; inconclusive means small, poorly fitted or top-dose-only effect, or another doubt; inactive means no such curve, though single readings can be large or run the other way. Potencies of inconclusive entries are left out as doubtful fits. Potency means the concentration at half of the fitted maximal effect; tags describe the fitted curve by direction and shape."}
{"target": "Beta-2 adrenergic receptor (Homo sapiens) (UniProt P07550)", "sequence (P07550 whole entry, looked up)": "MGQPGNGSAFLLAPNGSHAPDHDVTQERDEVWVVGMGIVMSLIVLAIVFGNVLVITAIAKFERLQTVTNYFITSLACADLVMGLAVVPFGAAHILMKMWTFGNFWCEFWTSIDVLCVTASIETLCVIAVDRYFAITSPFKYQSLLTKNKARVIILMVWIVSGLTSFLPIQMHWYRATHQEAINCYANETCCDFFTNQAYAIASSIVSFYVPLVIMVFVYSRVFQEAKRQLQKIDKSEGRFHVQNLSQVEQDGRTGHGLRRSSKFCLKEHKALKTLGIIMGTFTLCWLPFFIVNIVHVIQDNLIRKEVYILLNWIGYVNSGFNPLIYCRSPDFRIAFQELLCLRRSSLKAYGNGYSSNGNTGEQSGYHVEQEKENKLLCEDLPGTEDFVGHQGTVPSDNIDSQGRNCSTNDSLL", "assay": "qHTS assay of beta-arrestin-biased ligands of beta2-adrenergic receptor: NCGC Sytravon Library Screen;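 on activation: 0% = DMSO and full agonism = EC100 isoproterenol or metaproterenol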", "settings": "HTLA Tango cells, beta-arrestin recruitment, luciferase luminescence, 18 h; series mostly up to 46.1 µM; activation: at the top concentration", "text": "The concept of biased agonism is an emerging concept of molecular pharmacology which proposes that seven transmembrane receptors (7TMRs) or G protein-coupled receptors (GPCRs), exist in multiple signaling conformations and complexes and that ligands (either agonists or antagonists) can induce signaling biased responses for distinct signal transduction cascades. […] Furthermore, accumulating evidence over the last decade has drawn attention to a novel function of beta-arrestins as signal transducers that scaffold various signaling molecules upon activation of 7TMRs. […] This beta-arrestin-biased signaling presumably leads to distinct physiological outcomes from those by G protein activation. Additionally, the active receptor conformations which prefer on this beta-arrestin signaling are likely different from those activating G protein signaling. […] The goal of this screening project will be to discover and optimize novel beta-arrestin-biased ligands for beta2-AR signaling. A luminescent cell-based assay for beta2-AR-mediated agonism, known as the Tango assay, has been validated in which ligand binding of a recombinant beta2-AR and subsequent recruitment of a recombinant beta-arrestin lead to the release of the transcriptional activator tTA, which upregulates transcription of a tTA-responsive luciferase gene. […] Compounds from the NCGC Sytravon Library collection were screened as a concentration-titration series that ranged from 46 microM to 0.6 nM. NIH Molecular Libraries Probe Production Network [MLPCN] NIH Chemical Genomics Center [NCGC] MLPCN Grant: Fast-track/HHSN271700800025C PI: Bryan Roth and Bob Lefkowitz\nTango cells were dispensed into white, solid, tissue-culture-treated 1536-well plates at 1500 cells/well in DMEM, containing 1% fetal bovine serum (FBS). Then, 23 nL of compounds or DMSO were delivered to each well using a pin tool. Plates were incubated at 37 degrees C, 5% CO2 for 18 hr. Then 2.5 uL luminescent substrate mix (in-house prepared: 150 mM Tris-Cl, pH 7.6, 3 mM MgCl2, 1% Triton X-100, 5 mM DTT, 0.5 mM CoA, 0.15 mM ATP, 0.44 mM D-luciferin, final concentrations) was added to each well. Plates were then incubated for 15 minutes at room temperature, and subsequently measured on a ViewLux plate reader for luminescent signal using a clear filter with a 10 second exposure and 2x binning. The %Activity was determined from the corrected luminescence values. […] Concentration-response curves were fitted to the signals arising from the resulting luminescence. The concentration-effect curves were then classified based on curve quality (r2), response magnitude and degree of measured activity, and compounds were subsequently categorized based on their curve class."}
{"smiles": "Cc1ccc(CCNC(=O)c2cc3sccc3n2Cc2ccc(C)cc2)cc1", "Potency": "inconclusive [activator, single point]"}
{"smiles": "COc1ccccc1/C=C/c1nc(C#N)c(N2CCCCC2)o1", "activation": "inactive: -1.06%"}
{"smiles": "CCN(Cc1ccccc1)C(=O)c1nc(-c2cccc(F)c2)n2c1CCCCC2", "Potency": "inconclusive [activator, partial curve, poor fit]"}
{"smiles": "CCOc1ccc(C2c3c(-c4ccccc4O)n[nH]c3C(=O)N2Cc2ccncc2)cc1", "note": "(stereo not given)", "Potency": "inconclusive [activator, single point]"}
{"smiles": "COc1cc2[nH]c(=O)n(Cc3ccc(C(=O)N4CCN(c5ccc(Cl)cc5)CC4)cc3)c(=O)c2cc1OC", "activation": "inactive: -1.07%"}
{"smiles": "CCOC(=O)C1CCN(C(=O)c2nn(-c3ccc(OC)c(Cl)c3)c(=O)c3c2c2ccccc2n3C)CC1", "Potency": "inconclusive [activator, partial curve]"}
{"smiles": "COc1cccc(NC(=O)CSc2nnc(COc3ccc(Cl)cc3)o2)c1", "activation": "inactive: -2.57%"}
{"smiles": "CCCN1C(=O)C(O)(CC(=O)c2ccc(OC)c(OC)c2)c2ccccc21", "note": "(stereo not given)", "Potency": "inconclusive [activator, single point]"}
{"smiles": "CCOc1ccccc1CNC(=O)C1CCCN(c2nnc(C)c3c(C)n(-c4ccccc4)nc23)C1", "note": "(stereo not given)", "Potency": "inconclusive [activator, partial curve, poor fit]"}
{"smiles": "Cc1nn2c(=O)cc(COC(=O)c3cccc(NC(=O)COc4ccccc4C)c3)nc2s1", "activation": "inactive: -0.129%"}
{"smiles": "Cc1cc(C)c(NC(=O)Cn2c(=O)n(CCC(=O)N3CCc4ccccc4C3)c(=O)c3ccccc32)c(C)c1", "activation": "inactive: 1.39%"}
{"smiles": "CCCCN1CC(c2nc3ccccc3n2CCCCOc2cc(C)cc(C)c2)CC1=O", "note": "(stereo not given)", "activation": "inactive: -2.19%"}
{"smiles": "Cc1ccc(C(=O)c2cn(Cc3ccccc3C)c3nc(C)ccc3c2=O)cc1", "Potency": "inconclusive [activator, partial curve, poor fit]"}
{"smiles": "Cc1ccc(C(CC(=O)Nc2ccc(C)cc2C)N2Cc3ccccc3C2=O)cc1", "note": "(stereo not given)", "Potency": "inconclusive [activator, partial curve, poor fit]"}
{"smiles": "COc1ccc(OC)c(CCNC(=O)C(C)n2nc(C)c3c(C)n(-c4ccc(C)cc4)nc3c2=O)c1", "note": "(stereo not given)", "activation": "inactive: -0.541%"}
{"smiles": "COc1ccc(C2c3c(-c4ccccc4O)n[nH]c3C(=O)N2Cc2ccco2)cc1", "note": "(stereo not given)", "Potency": "inconclusive [activator, partial curve, poor fit]"}
{"smiles": "COc1ccc(N2C(=O)CSC23C(=O)N(CC(=O)NC2CCCCC2)c2ccccc23)cc1", "note": "(stereo not given)", "Potency": "inconclusive [activator, partial curve, poor fit]"}
{"smiles": "Cc1ccc(CCNC(=O)CCCn2c(=O)c3ccccc3n(Cc3ccccc3C)c2=O)cc1", "Potency": "inconclusive [activator, partial curve, poor fit]"}
{"smiles": "O=c1c2cnn(-c3ccc(Cl)cc3)c2ncn1Cc1ccc(Cl)cc1Cl", "Potency": "inconclusive [activator, single point]"}
{"smiles": "Cc1cccc(NC(=O)C2CCCN(S(=O)(=O)c3cccc4nonc34)C2)c1C", "note": "(stereo not given)", "Potency": "inconclusive [activator, partial curve, poor fit]"}
{"smiles": "CCc1ccc(-n2c(SC(CC)C(=O)N(CC)CC)nc3n[nH]c(C)c3c2=N)cc1", "note": "(stereo not given)", "Potency": "inconclusive [activator, partial curve, poor fit]"}
{"smiles": "CCCS(=O)(=O)c1ncc(Cl)c(C(=O)N2CCN(c3ccc(OC)cc3)CC2)n1", "Potency": "inconclusive [activator, single point]"}
{"smiles": "Cc1nc2cccnc2n1C1CCN(S(=O)(=O)c2ccc(Cl)cc2)CC1", "activation": "inactive: -0.338%"}
{"smiles": "CCn1cc(C(=O)N2CCN(c3cc(Cl)ccc3C)CC2)c2cc(OC)c(OC)cc2c1=O", "Potency": "inconclusive [activator, partial curve, poor fit]"}
{"smiles": "O=C(Nc1cccc(C(F)(F)F)c1)C1CCN(c2nnc(-n3cccc3)s2)CC1", "activation": "inactive: -2.25%"}
{"smiles": "O=S(=O)(Nc1cccc(Cl)c1)c1ccc2[nH]c3c(c2c1)CCCCCC3", "activation": "inactive: -0.554%"}
{"smiles": "COc1cccc(NC(=O)c2cnc(SCC(=O)N3CCOCC3)n(C)c2=O)c1", "Potency": "inconclusive [activator, single point]"}
{"smiles": "COc1ccc(-c2nc(SCC(=O)NCc3nc4ccccc4n3C)n3[nH]c(=O)cc3n2)cc1", "activation": "inactive: 2.14%"}
{"smiles": "CCN(CC)c1ccc(NC(=O)C2COc3ccc(OC)cc3C2)c(C)c1", "note": "(stereo not given)", "Potency": "inconclusive [activator, single point]"}
{"smiles": "Cc1nc(-c2ccc(F)cc2)sc1CCNC(=O)c1ccco1", "activation": "inactive: 0.713%"}
{"smiles": "CCc1ccc(NC(=O)N(Cc2ccc(C)cc2)Cc2cccn2-c2nnc(N3CCCC3=O)s2)cc1", "Potency": "inconclusive [activator, single point]"}
{"smiles": "COc1ccc(CNC(=O)Cc2csc3nc(-c4ccc(C)cc4)cn23)cc1", "activation": "inactive: 1.62%"}
{"smiles": "Cc1cccc(NC(=O)CCn2nc(-c3ccccc3)c3ccccc3c2=O)c1", "Potency": "inconclusive [activator, partial curve, poor fit]"}
{"smiles": "CCOc1ccc(NS(=O)(=O)c2ccc3[nH]cc(C(=O)NCCc4ccccc4)c(=O)c3c2)cc1", "Potency": "inconclusive [activator, single point]"}
{"smiles": "CCC(C)n1c(=N)c(C(=O)NC2CCCCC2)cc2c(=O)n3cc(C)ccc3nc21", "note": "(stereo not given)", "activation": "inactive: -1.52%"}
{"smiles": "COc1ccccc1N1CCN(Cc2cc(COC(C)C)c3cccnc3c2O)CC1", "Potency": "inconclusive [activator, partial curve]"}
{"smiles": "CCOC(=O)c1cc(-c2ccc(OC)cc2)n(CCC(=O)NCCc2ccc(OCC)c(OCC)c2)c1C", "Potency": "inconclusive [activator, partial curve, poor fit]"}
{"smiles": "COc1ccc(-c2nc3c(c(SCC(=O)N4CCCCC4)n2)Cc2cc(C)ccc2O3)cc1", "Potency": "inconclusive [activator, partial curve, poor fit]"}
{"smiles": "COc1cccc(NC(=O)c2cccc3c(=O)c4c([nH]c23)CCCC4)c1", "Potency": "inconclusive [activator, partial curve, poor fit]"}
{"smiles": "CC(C)(C)OC(=O)N1CCC(c2c(C(=O)NCc3cccs3)cnn2-c2cccc(F)c2)CC1", "Potency": "inconclusive [activator, single point]"}
